Source: paper PMC4336329 (PLoS ONE, 2015)
Screen size: about 310,000 compounds; about 14,000 (4.5%) showed an effect of 50% or more. The effect is printed as a negative number. The list shows a part of the results.

target: human ether-à-go-go-related gene (hERG) potassium channel (human, UniProt Q12809); assay: primary screen, population patch clamp on CHO cells stably expressing hERG
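Also: peak tail current of the secondary pulse compared with the same well before compound.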

Sequence of human ether-à-go-go-related gene (hERG) potassium channel (Q12809 whole entry, looked up): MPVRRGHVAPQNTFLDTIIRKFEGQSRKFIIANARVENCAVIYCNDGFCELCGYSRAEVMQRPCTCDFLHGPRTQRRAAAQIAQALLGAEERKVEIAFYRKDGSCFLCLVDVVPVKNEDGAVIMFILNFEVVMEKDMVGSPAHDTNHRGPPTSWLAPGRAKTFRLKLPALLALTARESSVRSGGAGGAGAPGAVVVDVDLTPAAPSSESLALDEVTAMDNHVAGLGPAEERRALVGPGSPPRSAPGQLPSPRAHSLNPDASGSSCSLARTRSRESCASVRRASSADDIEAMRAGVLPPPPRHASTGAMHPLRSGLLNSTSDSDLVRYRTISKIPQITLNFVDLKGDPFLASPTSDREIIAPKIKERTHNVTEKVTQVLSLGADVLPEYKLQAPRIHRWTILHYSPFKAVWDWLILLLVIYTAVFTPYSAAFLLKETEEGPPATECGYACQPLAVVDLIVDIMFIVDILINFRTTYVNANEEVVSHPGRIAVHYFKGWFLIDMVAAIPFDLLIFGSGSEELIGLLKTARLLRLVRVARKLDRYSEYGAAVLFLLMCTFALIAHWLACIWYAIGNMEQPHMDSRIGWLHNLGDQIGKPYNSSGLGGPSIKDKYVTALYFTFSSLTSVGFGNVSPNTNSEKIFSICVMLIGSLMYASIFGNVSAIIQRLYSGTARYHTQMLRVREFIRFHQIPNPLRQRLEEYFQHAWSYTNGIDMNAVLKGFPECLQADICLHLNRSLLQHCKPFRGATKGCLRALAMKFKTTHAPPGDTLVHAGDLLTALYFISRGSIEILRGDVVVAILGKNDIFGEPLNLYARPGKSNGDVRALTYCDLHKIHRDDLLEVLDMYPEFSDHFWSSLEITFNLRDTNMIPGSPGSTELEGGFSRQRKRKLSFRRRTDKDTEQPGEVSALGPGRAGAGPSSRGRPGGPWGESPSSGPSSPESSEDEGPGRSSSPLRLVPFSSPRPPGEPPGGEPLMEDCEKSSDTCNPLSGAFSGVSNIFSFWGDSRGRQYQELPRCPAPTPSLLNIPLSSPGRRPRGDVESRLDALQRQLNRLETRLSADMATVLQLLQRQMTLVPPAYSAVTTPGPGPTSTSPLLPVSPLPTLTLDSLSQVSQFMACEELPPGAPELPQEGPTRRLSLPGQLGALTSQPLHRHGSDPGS

SMILES | hERG current change (%, negative = inhibition) at 10uM [%]
Cc1c(C(=O)N(C)CCc2cnn(C)c2)oc2c(F)cccc12 | 4.52
CC1(C)CC(=O)C2=C(C1)Nc1ccccc1N(C(=O)C1CC1)C2c1ccco1 (centres unmarked) | -16.7
COC(=O)c1cccc(N(C(=O)CNC(=O)c2cccs2)C(C(=O)NCC2CCCO2)c2ccc(OC)c(OC)c2)c1 (centres unmarked) | 18.6
Cc1cc(OCC(=O)N2CCOCC2)ccc1NC(=O)c1ccccc1C | 22.4
Cc1ccc2cc(COC(=O)c3ccco3)c(=O)[nH]c2c1 | 8.25
COc1cccc(-c2coc3cc4oc(=O)c(CC(=O)O)c(C)c4cc23)c1 | 25.9
Cc1cc(NC(=O)CSc2cn(CCNC(=O)c3ccc(F)cc3)c3ccccc23)no1 | -37.2
O=C(c1ccc(Cl)c(S(=O)(=O)N2CCCC2)c1)N1CCN(c2ccccn2)CC1 | -31.3
COc1ccccc1N1CCN(Cc2nc(N)nc(Nc3ccc(C)c(Cl)c3)n2)CC1 | -75.5
Cc1cccc(OCC(O)CN2C(C)(C)CC(O)CC2(C)C)c1C (centres unmarked) | -51.3
CCCn1cc(CN2CCC(C(=O)Nc3cccc(-c4cscn4)c3)CC2)c(C)n1 | -45.3
CCCn1c(NCc2cc(C)ccc2O)nc2ccccc21 | -4.47
COc1cc(/C=N/Nc2nc(C)cc(=O)[nH]2)ccc1OC(=O)c1cccnc1 | 13.3
CCOc1ccccc1C(=O)OCC(=O)NCCNC(=O)COC(=O)c1ccccc1OCC | 5.95
Cc1ccccc1-c1ccc(CN2CCN(C)C(CCO)C2)cc1 (centres unmarked) | -14.1
Cc1cc(C)c(C)c(Oc2ncnc(N)c2[N+](=O)[O-])c1 | 0.646
CCOC(=O)NNc1nncc2ccccc12.Cl | 2.17
Cc1[nH][nH]c(=O)c1C=NCc1cccc(C(F)(F)F)c1 | 15.4
Fc1ccccc1-c1nc(-c2ccc(Br)o2)no1 | 9.97
COc1ccc2c(c1)c(C(=O)CN1CCN(C)CC1)c(C)n2Cc1ccccc1 | -35
Cc1nc(-c2nc(-c3c(C(=O)NNC(=O)Nc4ccccc4)noc3C)cs2)cs1 | 9.28
C/C(=N\Nc1nc(-c2ccccc2O)nc2ccccc12)c1ccccc1 | 10.9
Cc1ccc(O)c(NC(=O)c2cc(C)no2)c1 | 16.2

SMILES | hERG current change (%, negative = inhibition) at 10uM [%]
O=C(N/N=C\c1ccco1)Nc1cccc(Cl)c1 | -5.83
Cc1onc(-c2ccccc2Cl)c1C(=O)NCCn1c(C)cc2ccccc21 | -2.68
CCN(CC(=O)NC1CCS(=O)(=O)C1)S(=O)(=O)c1cccc(C(C)=O)c1 (centres unmarked) | 14.1
COc1ccccc1-c1noc(CSc2nc(C)cc(=O)[nH]2)n1 | 20.1
CNc1nc(Sc2ccccc2)cc(C(F)(F)F)n1 | 15
CCS(=O)(=O)N1CCC(c2nc3ccccc3[nH]2)CC1 | 7.94
COc1ccccc1NS(=O)(=O)c1cc(NC(=O)c2cc[n+]([O-])cc2)ccc1N1CCCC1 | 7.45
CCN(CC)c1ccc(CN(C(=O)c2ccco2)C2CCS(=O)(=O)C2)cc1 (centres unmarked) | -15.4
COCCC(=O)N1CCC(Oc2ccc(C(=O)N3CCCCC3CCO)cc2)CC1 (centres unmarked) | 6.68
CNC(=O)c1cc2c(ccc3ccccc32)o1 | -5.82
CCN(CC)C(=S)NC(=O)Cc1ccccc1 | 16.1
Cc1ccsc1C(=O)OCc1csc(-c2ccccc2)n1 | -14
C[C@H](CS)C(=O)N1CCC[C@H]1C(=O)O | 1.54
Cc1ccc(-c2nc3sc4c(N)ncnc4c3c3c2CCCC3)cc1 | 7.94
CS(=O)(=O)Nc1ccccc1C(=O)NCC1(N2CCCCC2)CCCCC1 | -8.32
CCN(CC)CCCC1(CN)OCCc2ccccc21.Cl (centres unmarked) | 7.48
CCCOc1ccc(C(=O)O)cc1 | -0.0982
CC1(CCc2ccccc2)NC(=S)N(c2ccccc2)N1 (centres unmarked) | 21
COc1ccc(/C(N)=N/OC(=O)Cc2ccc(OC)c(OC)c2)cc1 | 8.67
CCCOc1ccc(-c2cnc(N)s2)cc1 | -4.49
COc1cccc(Nc2nc(CN3CCOCC3)nc3sc4c(c23)CCCC4)c1 | -53.1
O=C(Nc1cccnc1)c1ccc(F)c(S(=O)(=O)N2CCOCC2)c1 | -0.459
CCOc1ccccc1CNS(=O)(=O)c1ccc2c(c1)C(C)(C)C(=O)N2C | -13.5

SMILES | hERG current change (%, negative = inhibition) at 10uM [%]
CCc1nn(CCCC(=O)N2CCN(c3cccc(C)c3C)CC2)c(=O)c2cc3occc3n12 | -24.9
Cc1ccc(N(CC(=O)NC2CCCCC2)C(=O)CNC(=O)c2ccco2)c(C)c1 | -0.436
COc1ccc2[nH]c3c(=O)n(CCc4ccccc4)cnc3c2c1 | -6.62
CCOC(=O)c1nnc(-c2cccs2)nc1NC(C)C | -32.2
O=C(NCCO)c1c(O)c2cccc3c2n(c1=O)CC3 | 12.7
Cc1cccc2nc(-c3ccccc3)nc(N3CCC(O)(c4ccc(Cl)cc4)CC3)c12 | 10.1
Cc1snc(S(=O)(=O)Cc2ccccc2Cl)c1C#N | -7.06
CC(/C=N/n1c(COc2ccccc2)n[nH]c1=S)=C\c1ccco1 | 14.3
COc1cc(CC(=O)OCc2ccccc2F)cc(OC)c1OC | 4.36
CCSc1nc(-c2ccc(OC)cc2)cc(-c2ccc(OC)cc2)c1C#N | 18.4
COc1ccc2[nH]c(=O)c(C(c3nnnn3C3CCCC3)N3CCN(Cc4ccc5c(c4)OCO5)CC3)cc2c1 (centres unmarked) | -35.3
COc1ccc(-c2nc(CSCC(=O)NC3CC3)c(C)o2)cc1OC | 24.5
O=C(N/N=C/c1cccs1)c1ccc2nc[nH]c2c1 | 6.14
CCOC(=O)[C@H]1[C@H]2COc3ccc(Br)cc3[C@@H]2N2C(=O)CN(Cc3ccccc3)C(=O)[C@@]12C | -4.29
Cn1cc(/C=N/n2cnc3sc4c(c3c2=O)CCCC4)c2ccccc21 | 1.33
O=C(O)CSc1nnc(-c2ccc(Cl)cc2Cl)n1-c1ccc(Cl)cc1 | 8.03
COc1ccc(NC(=O)COC(=O)c2ccc(OC)c(S(=O)(=O)N3CCCC3)c2)cc1OC | 4.45
Cc1ccc(/C=C2\SC(=S)N(CCC(=O)NNC(=O)c3cccnc3)C2=O)cc1 | 1.06
Cn1c(SCC(=O)c2ccccc2F)nnc1C1CC1 | 7.81
COc1ccc(NC(=S)NC(=O)c2cncc(Br)c2)c(OC)c1 | 16
Cc1cc(N2CCN(C)CC2)nc2ccc(NC(=S)N3CCN(c4ccc(Cl)cc4)CC3)cc12 | 15.5
CC1CCN(CC(O)CN2c3ccccc3Sc3ccccc32)CC1 (centres unmarked) | -59.2
O=C(CCc1ccccc1)Nc1ncn[nH]1 | -10.1

SMILES | hERG current change (%, negative = inhibition) at 10uM [%]
CCOc1ccc(C2Nc3ccccc3C(CC)(CC)O2)cc1 (centres unmarked) | 6.78
Cc1oc2cc([N+](=O)[O-])c(O)c([N+](=O)[O-])c2c1C(=O)c1ccc(Cl)cc1 | 17.9
Cc1cccc(C)c1NC(=S)NC(C)CCc1ccccc1 (centres unmarked) | 6.75
Cc1ccc2c(CC(=O)Nc3cccc(S(=O)(=O)N4CCOCC4)c3)coc2c1 | -51.4
Cc1ccc(C(=O)N[C@H](C(=O)NC2CCCCCCC2)C(C)C)cc1 | 9.46
Cc1ccc(NC(=S)N/N=C/c2cccn2Cc2ccccc2F)cc1 | -1.42
Cc1cccnc1NC1=NCC(C)S1 (centres unmarked) | 3.1
CC(=O)Nc1ccc(C23CC4CC(CC(C4)C2)C3)cc1 | 18.1
O=C(NCc1ccccc1)C1CCCC1 | 22.7
Cc1cnc(NC(=O)c2ccc(-c3nc4ccccc4s3)o2)s1 | -6.9
Cc1cccc(C(=O)NCCCN2CCCC2=O)c1 | 13.9
CC(C)CCC(C)N=Cc1c(O)n(Cc2ccccc2)c(=O)c2ccccc12 (centres unmarked) | 18.3
Cc1ccccc1CNC(=O)CCCC(=O)n1nc(C)c2ccccc21 | -5.83
CCOC(=O)NC(=O)/C(C#N)=C\NNc1ncc(C(F)(F)F)cc1Cl | -8.73
CCN1CCN(c2ncnc3c2cnn3-c2ccccc2)CC1 | -14.1
CCN(Cc1ccccc1)c1ccc(/C=N/NS(=O)(=O)c2ccc(C)c([N+](=O)[O-])c2)cc1 | 7.77
CCN(C(=O)COC(=O)/C=C/c1ccc(S(=O)(=O)N2CCc3ccccc32)cc1)C1CCS(=O)(=O)C1 (centres unmarked) | -19.4
CO/N=C(\C(=O)O)c1csc(NN=C(C)C)n1 | 16.2
O=C(N/N=C/c1cn(Cc2cccc(F)c2)c2ccccc12)c1cc(O)cc(O)c1 | -0.861
COc1ccc(CN2C(=O)NC(=O)/C(=C/c3ccc(OC)c(OC)c3OC)C2=O)cc1 | 6.05
